The other results are listed elsewhere or left out. At the low end of the ranking the order means little.
What follows are sequences tested against T1, GST-Rok (full length) (UniProt O34857) (assay: protein binding microarray). Settings: Rok is a gene silencer of Bacillus subtilis; high values mean tight binding; most listed sequences are background and not binding sites; double strand, one strand shown.
T1 sequence: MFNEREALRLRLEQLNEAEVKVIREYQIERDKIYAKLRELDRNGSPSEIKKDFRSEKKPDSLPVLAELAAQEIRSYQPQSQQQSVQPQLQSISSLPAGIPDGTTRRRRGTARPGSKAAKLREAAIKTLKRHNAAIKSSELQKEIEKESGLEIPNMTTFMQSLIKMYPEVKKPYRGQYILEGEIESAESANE
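Note: rank score from −0.5 (least bound) to 0.5 (best bound).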

Row | Sequence | binding signal
1 | AATTAGCA | 0.271 E-score
2 | AGGAACGC | -0.222 E-score
3 | CTTGCGCA | -0.0792 E-score
4 | ACCATAAT | 0.206 E-score
5 | GATGGGAA | -0.056 E-score
6 | CGAGATTA | 0.24 E-score
7 | GTGAATAA | -0.00672 E-score
8 | CTTGCGAA | -0.248 E-score
9 | AATGTACC | 0.321 E-score
10 | CCGGTAGG | -0.0731 E-score
11 | AACCTCAG | 0.179 E-score
12 | AACTCGGG | -0.034 E-score
13 | GGGTCACA | -0.0349 E-score
14 | AGACTCCG | -0.167 E-score
15 | GTCACCGA | -0.0907 E-score
16 | ACGGGAGG | -0.226 E-score
17 | ACTTCCTC | -0.29 E-score
18 | AGATGATG | -0.0712 E-score
19 | TCCCCCGA | -0.401 E-score
20 | CAAGAAGC | -0.164 E-score
21 | ATCAATCA | 0.114 E-score
22 | ATGCGGCG | -0.107 E-score
23 | CCGCGGCC | -0.364 E-score
24 | GACGTTCA | -0.127 E-score
25 | ACTGGTCC | -0.145 E-score

Row | Sequence | binding signal
26 | ATAAGTTG | 0.211 E-score
27 | TCCCCAAA | -0.169 E-score
28 | AATGTTAG | 0.105 E-score
29 | AAATAAGA | 0.134 E-score
30 | AAGGGACG | -0.273 E-score
31 | AGCGGTTG | -0.114 E-score
32 | AAGCTTAC | 0.118 E-score
33 | ATTTTAAA | 0.126 E-score
34 | CCTATTCA | -0.0574 E-score
35 | TACGTCCA | -0.0463 E-score
36 | CAATTAAA | 0.187 E-score
37 | TGTCCGAA | -0.0878 E-score
38 | CACAGCCC | -0.126 E-score
39 | AGGCAGAT | -0.293 E-score
40 | GTATCACA | 0.187 E-score
41 | AAATAGGC | 0.00361 E-score
42 | ATAGTGCC | -0.121 E-score
43 | AGATAGTA | 0.347 E-score
44 | GAGCTATA | 0.145 E-score
45 | CCCCCTCA | -0.421 E-score
46 | GCACGGCC | -0.21 E-score
47 | ATATATGG | 0.299 E-score
48 | CGCACAGA | -0.0479 E-score
49 | GTAGGCTA | 0.101 E-score
50 | AGAAACTC | 0.158 E-score

Row | Sequence | binding signal
51 | GAGGAGGA | -0.317 E-score
52 | ACGTGCGA | -0.0508 E-score
53 | GTAAACAA | 0.0786 E-score
54 | CCGTCAGG | -0.328 E-score
55 | ACCGAGAT | 0.0591 E-score
56 | ATAGACTC | 0.0376 E-score
57 | CACAAAAG | -0.0697 E-score
58 | CCGTTCTC | -0.0253 E-score
59 | GGCCATTA | -0.0263 E-score
60 | GCGGGCAC | -0.205 E-score
61 | GATCGACA | -0.231 E-score
62 | AAGGCCCC | -0.456 E-score
63 | ACGAGGTC | 0.0222 E-score
64 | ACGCACTC | 0.0403 E-score
65 | CCGCACAA | -0.137 E-score
66 | CCATTTGA | -0.202 E-score
67 | ACTCCTAA | 0.136 E-score
68 | AATGTTCG | -0.0446 E-score
69 | CCATCCGG | -0.163 E-score
70 | CGGAGTAA | -0.0891 E-score
71 | CAGAGCGA | -0.261 E-score
72 | CTTTACAC | 0.0178 E-score
73 | ACGAGCGC | -0.217 E-score
74 | ATCACTTA | 0.19 E-score
75 | CAGTATAC | 0.249 E-score

Row | Sequence | binding signal
76 | AACACGAT | 0.145 E-score
77 | CGACTGAA | 0.0531 E-score
78 | CCGCCAGC | -0.259 E-score
79 | CCGCATGA | -0.265 E-score
80 | CTTTAGTA | 0.23 E-score
81 | AGCCGGCA | -0.19 E-score
82 | ATCCTGGA | 0.0181 E-score
83 | CGACTAGA | -0.00813 E-score
84 | TACGACAA | 0.152 E-score
85 | CATAATGA | 0.206 E-score
86 | GCACTATA | 0.171 E-score
87 | GCACAAGA | -0.113 E-score
88 | GCGCCCCA | -0.427 E-score
89 | CATGCAGA | -0.0337 E-score
90 | GAACCGGA | -0.234 E-score
91 | ATTGCCTC | -0.0913 E-score
92 | TAAATCCA | 0.271 E-score
93 | AGCCTGAG | -0.232 E-score
94 | CTAACTAC | 0.397 E-score
95 | ACTGGTAG | 0.252 E-score
96 | GAAGCAGA | 0.0364 E-score
97 | TACCCGGA | -0.00401 E-score
98 | GTTACCTA | 0.0966 E-score
99 | GCTGCATA | 0.0742 E-score
100 | AAAACAAT | 0.245 E-score

Row | Sequence | binding signal
101 | CTGCGTAA | 0.0267 E-score
102 | ATGCTTAG | 0.0152 E-score
103 | AATCCAGA | 0.0616 E-score
104 | CAAGTTGG | -0.082 E-score
105 | GTGGGTTA | -0.107 E-score
106 | GCCCGTAA | -0.148 E-score
107 | CATCGTCG | 0.0751 E-score
108 | TCTGGCCA | -0.144 E-score
109 | ACCAACTG | -0.207 E-score
110 | CCAATAGC | -0.0527 E-score
111 | GCAACGAC | -0.0786 E-score
112 | ATCGCGGG | -0.192 E-score
113 | ACCCACGG | -0.147 E-score
114 | GTAAGTTA | 0.264 E-score
115 | CCATCCTA | -0.102 E-score
116 | CCGGAGCG | -0.238 E-score
117 | GGTGTTAC | 0.064 E-score
118 | AGGATGTC | -0.198 E-score
119 | CCTTTCGA | -0.249 E-score
120 | CGCCCTGC | -0.364 E-score
121 | AGTAAACC | 0.161 E-score
122 | ATACCCCC | -0.244 E-score
123 | AAGAGCAC | -0.268 E-score
124 | GCTATCCC | -0.0139 E-score
125 | AAGCCCGG | -0.252 E-score

Row | Sequence | binding signal
126 | CCACGGGA | -0.156 E-score
127 | AGTGGAGA | -0.152 E-score
128 | CTGGCATA | -0.0278 E-score
129 | TATGTTCA | 0.159 E-score
130 | CCTAATAA | -0.137 E-score
131 | GAGTCCAA | 0.0905 E-score
132 | AATCTATG | 0.174 E-score
133 | ACATGACC | 0.211 E-score
134 | GAAGCAGC | -0.243 E-score
135 | GTTTTGAA | -0.056 E-score
136 | ACAGAAAT | 0.134 E-score
137 | AAACAATG | 0.0437 E-score
138 | CAGTACCA | -0.0138 E-score
139 | ACGCGAAT | 0.235 E-score
140 | CATAAGAA | 0.266 E-score
141 | CCTATAGA | 0.0582 E-score
142 | AATATAGA | 0.365 E-score
143 | AGTTGTCA | 0.0597 E-score
144 | GATCATCA | -0.0458 E-score
145 | GCCGGCAA | -0.163 E-score
146 | ACGGCATG | -0.125 E-score
147 | ACGTCGAC | -0.219 E-score
148 | CCAACTGA | -0.099 E-score
149 | CCCGGGGC | -0.385 E-score
150 | CTTTCGCA | -0.0876 E-score

Row | Sequence | binding signal
151 | CAGCGTAC | 0.0603 E-score
152 | AAGGGATA | -0.135 E-score
153 | ATAATAGA | 0.271 E-score
154 | ACGTGGGC | -0.0245 E-score
155 | ACAAACCA | 0.02 E-score
156 | CTTTGTAA | 0.155 E-score
157 | AGCATGCG | -0.0322 E-score
158 | CAACCCGA | -0.056 E-score
159 | GATAATGA | 0.147 E-score
160 | AGGACGGA | -0.0841 E-score
161 | AGCTATGC | -0.101 E-score
162 | AGGTTTTG | 0.011 E-score
163 | ACTTGATC | 0.000129 E-score
164 | CGGGATCC | -0.107 E-score
165 | ATTTCAAC | 0.102 E-score
166 | CTGAGTAC | 0.0392 E-score
167 | CGAATTGC | 0.101 E-score
168 | TACTGAAA | 0.076 E-score
169 | AATTATCG | 0.217 E-score
170 | CAGGGGGA | -0.454 E-score
171 | TAACTCAA | 0.247 E-score
172 | CGCTCCAC | -0.173 E-score

From publication PMC6212790
